# Results from PubChem BioAssay AID504333 (National Center for Advancing Translational Sciences (NCATS), 2011).
# The campaign covered roughly 360,000 compounds. About 16,000 (4.4%) were called active. The shares of active, inactive and inconclusive entries below differ from those in the screen. Calls come from the whole dose curve; as a rule, active = well fitted inhibition curve with a large enough effect; inconclusive = small, poorly fitted or top-dose-only effect; inactive = no such curve, though single readings can be large or run the other way. Potencies beside an inconclusive call are fits to weak or partial responses and may not hold up.
# Target: Bromodomain adjacent to zinc finger domain protein 2B (Homo sapiens) (UniProt Q9UIF8)
# Assay: qHTS Assay for Inhibitors of BAZ2B; note: nearly all actives have a fitted effect of over 60% in size
# Settings: AlphaScreen BAZ2B-H3K14Ac peptide displacement; series mostly up to 114 µM
# Outline: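 Protein-peptide AlphaScreen: BAZ2B 50 nM, b-H3K14Ac 50 nM, 1x PBS pH 7.4 + 0.01% Tween-20. Preincubation 30 min RT; cpd 30 min RT (top 110 uM); beads 20 min RT, light-protected.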
# Potency is the fitted concentration of half-maximal effect; tags give direction and shape of the fitted curve.
# UniProt Q9UIF8, sequence (Q9UIF8 whole entry, looked up, the tested form may be a part): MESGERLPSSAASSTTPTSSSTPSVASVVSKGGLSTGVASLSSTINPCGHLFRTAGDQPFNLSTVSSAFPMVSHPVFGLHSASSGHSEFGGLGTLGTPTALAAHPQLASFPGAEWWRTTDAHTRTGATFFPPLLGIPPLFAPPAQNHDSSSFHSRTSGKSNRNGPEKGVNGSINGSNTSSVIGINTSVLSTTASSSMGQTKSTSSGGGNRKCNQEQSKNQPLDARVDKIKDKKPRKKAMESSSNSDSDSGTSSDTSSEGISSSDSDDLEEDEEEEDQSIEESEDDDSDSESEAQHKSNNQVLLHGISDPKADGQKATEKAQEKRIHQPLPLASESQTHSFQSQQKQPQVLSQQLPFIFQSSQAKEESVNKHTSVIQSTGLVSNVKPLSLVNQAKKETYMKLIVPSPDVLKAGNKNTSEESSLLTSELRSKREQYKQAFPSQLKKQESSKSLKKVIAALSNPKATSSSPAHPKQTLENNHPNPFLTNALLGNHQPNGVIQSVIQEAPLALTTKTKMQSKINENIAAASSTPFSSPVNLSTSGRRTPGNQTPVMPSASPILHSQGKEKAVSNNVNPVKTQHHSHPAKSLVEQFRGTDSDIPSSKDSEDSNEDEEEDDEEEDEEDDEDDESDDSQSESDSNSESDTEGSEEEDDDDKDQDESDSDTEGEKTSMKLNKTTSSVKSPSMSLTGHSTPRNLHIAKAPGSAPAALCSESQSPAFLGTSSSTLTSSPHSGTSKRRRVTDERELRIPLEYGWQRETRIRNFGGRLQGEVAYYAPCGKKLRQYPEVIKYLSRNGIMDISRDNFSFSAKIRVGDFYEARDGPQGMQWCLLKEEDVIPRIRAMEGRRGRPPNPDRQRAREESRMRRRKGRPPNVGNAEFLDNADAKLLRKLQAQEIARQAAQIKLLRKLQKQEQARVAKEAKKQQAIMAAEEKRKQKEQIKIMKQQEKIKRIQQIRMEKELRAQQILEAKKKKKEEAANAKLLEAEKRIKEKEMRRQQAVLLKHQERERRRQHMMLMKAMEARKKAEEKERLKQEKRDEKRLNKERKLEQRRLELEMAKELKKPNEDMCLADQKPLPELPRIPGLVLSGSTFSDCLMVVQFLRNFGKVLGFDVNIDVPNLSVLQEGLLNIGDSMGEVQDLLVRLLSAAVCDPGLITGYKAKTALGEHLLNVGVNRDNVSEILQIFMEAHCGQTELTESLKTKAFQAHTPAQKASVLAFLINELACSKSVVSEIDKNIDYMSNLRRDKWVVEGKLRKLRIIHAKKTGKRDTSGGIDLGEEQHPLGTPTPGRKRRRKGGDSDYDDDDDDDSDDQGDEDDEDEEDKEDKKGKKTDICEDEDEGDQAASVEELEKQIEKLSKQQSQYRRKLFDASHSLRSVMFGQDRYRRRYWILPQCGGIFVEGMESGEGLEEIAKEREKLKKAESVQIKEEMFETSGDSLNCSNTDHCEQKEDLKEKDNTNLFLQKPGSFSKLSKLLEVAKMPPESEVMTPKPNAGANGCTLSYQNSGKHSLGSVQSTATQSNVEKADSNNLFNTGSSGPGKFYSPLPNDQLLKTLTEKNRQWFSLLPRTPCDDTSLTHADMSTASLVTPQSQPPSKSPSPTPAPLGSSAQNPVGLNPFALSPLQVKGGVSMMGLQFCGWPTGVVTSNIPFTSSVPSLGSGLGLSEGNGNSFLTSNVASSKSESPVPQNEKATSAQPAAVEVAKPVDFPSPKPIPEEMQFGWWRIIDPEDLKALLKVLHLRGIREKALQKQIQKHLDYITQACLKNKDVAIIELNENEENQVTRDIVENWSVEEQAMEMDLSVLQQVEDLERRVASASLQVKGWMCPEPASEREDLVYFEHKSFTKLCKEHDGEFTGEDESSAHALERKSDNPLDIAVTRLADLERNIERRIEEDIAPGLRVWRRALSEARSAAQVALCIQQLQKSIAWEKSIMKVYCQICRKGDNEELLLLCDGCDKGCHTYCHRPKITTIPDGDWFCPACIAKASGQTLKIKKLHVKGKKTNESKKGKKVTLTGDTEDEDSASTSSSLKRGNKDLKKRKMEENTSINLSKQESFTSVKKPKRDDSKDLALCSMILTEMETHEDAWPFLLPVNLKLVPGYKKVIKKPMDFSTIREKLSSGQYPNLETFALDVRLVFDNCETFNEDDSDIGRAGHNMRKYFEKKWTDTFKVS
row,Structure (SMILES),Potency
1,C=CCOc1cccc(C2/C(=C(/O)c3ccccc3)C(=O)C(=O)N2CCN2CCOCC2)c1 (configuration not stated),"inconclusive: 100 µM [inhibitor, single point]"
2,CN(C)c1ccc(NC(=O)CSc2nnc(-c3cccs3)n2Cc2ccco2)cc1,active: 44.7 µM
3,Cc1ccc(N=Nc2ccc3ccccc3c2O)cc1,active: 1.12 µM
4,C/C(=N\NC(=O)c1ccccn1)c1ccc(Cl)cc1,"inconclusive: 89.1 µM [inhibitor, single point]"
5,N#Cc1nc(-c2cccs2)oc1NCc1ccc2c(c1)OCO2,"inconclusive: 35.5 µM [inhibitor, full curve]"
6,CCOc1cccc(-c2nnc3n2N=C(c2cc(OC)ccc2OC)CS3)c1,"inconclusive: 79.4 µM [inhibitor, single point]"
7,CCOc1ccc(NC(=O)CN(C)C(=O)c2cn3ccccc3n2)cc1OCC,"inconclusive: 100 µM [inhibitor, single point]"
8,Cc1ccc2c(n1)sc1c(=O)n(-c3cccc(C(F)(F)F)c3)nnc12,inactive
9,COc1ccc(CCN(C)C/C=C/c2ccccc2[N+](=O)[O-])cc1OC,"inconclusive: 89.1 µM [inhibitor, single point]"
10,CC1(C)C(=O)Nc2ccccc2N1C(=O)COC(=O)c1ccc(NC(N)=O)cc1,inactive
11,CC1=CC2=NC(=O)/C(=C\c3cccn3CCOc3cc(C)cc(C)c3)C(=N)N2O1,"inconclusive: 25.1 µM [inhibitor, full curve, poor fit]"
12,COc1ccc(N2CCN(C(c3ccco3)c3sc4nc(C)nn4c3O)CC2)cc1 (configuration not stated),"inconclusive: 50.1 µM [inhibitor, partial curve]"
13,C=CCNC(=S)Nc1cccc2[nH]ncc12,inactive
14,CCn1c(-c2cc(-c3cc(OC)ccc3OC)nc3ccccc23)n[nH]c1=S,"inconclusive: 89.1 µM [inhibitor, single point]"
15,CCOc1ccc(NC(=O)N2CCC(CN3CCCCCC3)CC2)cc1,"inconclusive: 70.8 µM [inhibitor, single point]"
16,CCC(C)Nc1nc2c(c(=O)n(C)c(=O)n2C)n1Cc1ccc(Cl)cc1 (configuration not stated),"inconclusive: 79.4 µM [inhibitor, single point]"
17,Cn1nccc1C(=O)N/N=C/c1c(O)ccc2ccccc12,"inconclusive: 31.6 µM [inhibitor, full curve, poor fit]"
18,COc1ccccc1NC(=O)N(Cc1ccco1)Cc1cc2cccc(C)c2[nH]c1=O,"inconclusive: 44.7 µM [inhibitor, partial curve]"
19,O=[N+]([O-])c1cccc(C(=S)N2CCN(c3ccccc3)CC2)c1,"inconclusive: 22.4 µM [inhibitor, full curve]"
20,COc1cc2c(cc1OC)C(COc1ccc3c(C)cc(=O)oc3c1)N(C(=O)c1cccc(OC)c1OC)CC2 (configuration not stated),inactive
21,CSCC(=O)Nc1nc(-c2ccc3c(c2)OCCO3)cs1,"inconclusive: 79.4 µM [inhibitor, partial curve]"
22,COc1ccc(C(=O)/C=C/c2cccc(OCc3ccccc3)c2)cc1CSCC(=O)O,active: 44.7 µM
23,O=[N+]([O-])c1ccccc1S(=O)(=O)N1CCN(c2ccccc2)CC1,"inconclusive: 39.8 µM [inhibitor, partial curve]"

row,Structure (SMILES),Potency
1,O=C(O)CSc1nnc(CNc2cccc(C(F)(F)F)c2)n1Cc1ccco1,"inconclusive: 79.4 µM [inhibitor, single point]"
2,COc1ccc(/C=N/NC(=O)c2ccc(Cl)cc2)cc1Cn1cc(Cl)cn1,"inconclusive: 89.1 µM [inhibitor, single point]"
3,Cc1ccc(-c2nc(CSCC(=O)NC3CCN(Cc4ccccc4)CC3)c(C)o2)cc1,"inconclusive: 50.1 µM [inhibitor, partial curve]"
4,Cc1c(NS(=O)(=O)c2ccc(N(C)C3CCCCC3)c([N+](=O)[O-])c2)c(=O)n(-c2ccccc2)n1C,"inconclusive: 79.4 µM [inhibitor, single point]"
5,Cc1ccc(C2(CCNCc3ccc(N(C)C)cc3)CCOC(C(C)C)C2)cc1 (configuration not stated),active: 35.5 µM
6,Cc1nc2cc(C(=O)OCC(=O)NC34CC5CC(CC(C5)C3)C4)ccc2n1-c1ccccc1,"inconclusive: 50.1 µM [inhibitor, partial curve]"
7,O=C1NC(=S)S/C1=C1\Sc2ccccc2N1CCCS(=O)(=O)O,"inconclusive: 89.1 µM [inhibitor, single point]"
8,O=c1[nH]c2ccccc2cc1CN(Cc1cccnc1)S(=O)(=O)c1ccc(Cl)cc1,"inconclusive: 79.4 µM [inhibitor, single point]"
9,Cc1cccc(C(=O)OCC(=O)Nc2c(C)n(C)n(-c3ccccc3)c2=O)c1,inactive
10,O=C(NCCCN1CCN(c2ccc(F)cc2)CC1)C1COc2ccccc2C1 (configuration not stated),"inconclusive: 39.8 µM [inhibitor, partial curve]"
11,COc1ccc2[nH]c(C)c(CCN(Cc3cccs3)C(=S)Nc3ccc(F)cc3)c2c1,"inconclusive: 44.7 µM [inhibitor, partial curve]"
12,CC1=NN(c2ccccc2)C(=O)/C1=C\c1cn(C)c2ccccc12,active: 3.55 µM
13,O=C(c1ccccc1)N(Cc1ccccc1)Cc1ccccc1,inactive
14,C=CCNC(=O)c1onc(CSc2ccccc2F)c1C(=O)O,"inconclusive: 63.1 µM [inhibitor, single point]"
15,O=C(COC(=O)CC1CCCC1)Nc1ccccc1[N+](=O)[O-],"inconclusive: 44.7 µM [inhibitor, partial curve]"
16,CCOC(=O)CCSc1n[nH]c(=S)s1,"inconclusive: 89.1 µM [inhibitor, single point]"
17,CCOC(=O)c1c(C)oc2nc(C)nc(N(CC(C)C)CC(C)C)c12,"inconclusive: 31.6 µM [inhibitor, single point]"
18,O=C(c1c(Cl)cccc1Cl)N1CCN(c2cccc3[nH]ccc23)CC1,"inconclusive: 79.4 µM [inhibitor, single point]"
19,CCOc1ccc(NC(=S)/C(=C(\[O-])c2ccc(C)c([N+](=O)[O-])c2)[n+]2ccccc2)cc1,"inconclusive: 50.1 µM [inhibitor, partial curve]"
20,CCNC(=S)N(CCc1c(C)[nH]c2ccc(C)cc12)Cc1cc(OC)c(OC)c(OC)c1,"inconclusive: 44.7 µM [inhibitor, partial curve]"
21,CCN1CCN(C(c2ccc(C(F)(F)F)cc2)c2ccc3cccnc3c2O)CC1 (configuration not stated),active: 28.2 µM
22,COc1ccc(C(=O)N/N=C/c2ccc(OC(=O)c3cccc4ccccc34)c([N+](=O)[O-])c2)cc1,"inconclusive: 79.4 µM [inhibitor, single point]"
23,COCCn1nnnc1C(c1ccc(OC)cc1OC)N1CCN(c2ccccc2)CC1 (configuration not stated),"inconclusive: 89.1 µM [inhibitor, single point]"

row,Structure (SMILES),Potency
1,CCc1cc2c(=O)[nH]c(-c3ccccn3)nc2s1,active: 28.2 µM
2,CC(=O)c1c(C)[nH]c(-c2ccccc2)nc1=S,inactive
3,Cc1c(/C(O)=C2/C(=O)C(=O)N(CCN3CCOCC3)C2c2ccccn2)cnn1-c1ccccc1 (configuration not stated),active: 25.1 µM
4,CCCCC1(CC(=O)OCC)C(=O)N(c2ccccc2)N(c2ccccc2)C1=O,inactive
5,CCOc1ccc(NC(=S)NC(C)CCc2ccccc2)cc1 (configuration not stated),"inconclusive: 50.1 µM [inhibitor, partial curve]"
6,O=C(c1ccc(Cn2c(=O)[nH]c3ccccc3c2=O)cc1)N1CCN(c2ccc(F)cc2)CC1,"inconclusive: 70.8 µM [inhibitor, single point]"
7,CCCCN(C)S(=O)(=O)c1cc(Br)cc2c1N(C(=O)C1CC1)CC2,inactive
8,O=C(NC(=S)NCc1ccccc1)c1cccs1,"inconclusive: 70.8 µM [inhibitor, partial curve]"
9,CCc1cccc(CC)c1NC(=S)/C(=C(\[O-])c1ccc(Cl)s1)[n+]1ccccc1,"inconclusive: 35.5 µM [inhibitor, partial curve]"
10,NNC(=S)Nc1cc(S(=O)(=O)N2CCOCC2)ccc1N1CCOCC1,"inconclusive: 56.2 µM [inhibitor, partial curve, poor fit]"
11,CCc1sc(C(=O)NCc2ccco2)cc1Br,"inconclusive: 50.1 µM [inhibitor, partial curve]"
12,CCOc1ccc(NC(=O)CSc2nc(-c3cccs3)cc(C(F)(F)F)c2C#N)cc1,inactive
13,Oc1ccc(/C=C/c2nc(-c3ccccc3O)n(-c3ccccc3)n2)c(O)c1,active: 31.6 µM
14,CCCCSc1nc2c(cnn2-c2ccc(F)cc2)c(=O)[nH]1,"inconclusive: 89.1 µM [inhibitor, single point]"
15,COCCn1c(-c2cccs2)csc1=Nc1cccnc1,active: 44.7 µM
16,COc1ccc(NC(=S)c2ccc3ccccc3n2)cc1,active: 11.2 µM
17,Cc1cc(/C=C\c2ccccc2)nc2ccccc12,inactive
18,COc1ccc(CCNc2oc(COc3ccccc3Cl)nc2C#N)cc1OC,"inconclusive: 44.7 µM [inhibitor, partial curve]"
19,COC(=O)[C@@]1(Cc2ccc(F)cc2)[C@H]2c3cc(C(=O)N(C)C)n(CCc4ccccn4)c3C[C@H]2CN1C(=O)c1ccccc1,"inconclusive: 79.4 µM [inhibitor, single point]"
20,COc1cc(C(c2c(C)[nH][nH]c2=O)c2c(C)[nH][nH]c2=O)cc([N+](=O)[O-])c1O,"inconclusive: 89.1 µM [inhibitor, single point]"
21,COc1cccc(CN2CCc3nc(Nc4ccc5c(c4)OCCO5)ncc3C2)c1OC,active: 35.5 µM
